{"source": "PubChem BioAssay AID1461", "about": "(National Center for Advancing Translational Sciences (NCATS), 2008)", "note": "The whole screen tested about 220,000 compounds, of which about 2,300 (1%) were called active. The inconclusive results got no clear call from the source; some entries with a clear call stand among them for comparison. Calls follow the shape of the dose curve; as a rule, active = well fitted inhibition curve with a large enough effect; inconclusive = small, poorly fitted or top-dose-only effect, or effect the other way; inactive = no such curve, though single readings can be large or run the other way. Potencies of inconclusive entries are doubtful fits and often do not repeat. % is scaled to controls: 0 for no effect and ±100 for the full control effect; potency is read from the fitted curve at half-maximal effect; tags tell the direction and shape of the fitted curve.", "data": [{"target": "Neuropeptide S receptor (Homo sapiens) (UniProt Q6W5P4)", "sequence (Q6W5P4 whole entry, looked up)": "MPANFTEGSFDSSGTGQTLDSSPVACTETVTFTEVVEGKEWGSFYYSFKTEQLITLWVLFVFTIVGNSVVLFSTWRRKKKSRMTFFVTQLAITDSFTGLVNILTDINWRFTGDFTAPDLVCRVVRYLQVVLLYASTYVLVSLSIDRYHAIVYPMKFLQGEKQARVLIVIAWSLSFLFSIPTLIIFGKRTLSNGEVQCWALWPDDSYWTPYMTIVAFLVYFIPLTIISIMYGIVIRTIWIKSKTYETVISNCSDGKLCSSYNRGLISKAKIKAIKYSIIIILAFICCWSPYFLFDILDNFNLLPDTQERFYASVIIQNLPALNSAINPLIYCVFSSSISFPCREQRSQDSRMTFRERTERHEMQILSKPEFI", "assay": "qHTS Assay for Antagonists of the Neuropeptide S Receptor: cAMP Signal Transduction; also: nearly all actives have a fitted effect of over 50% in size", "conditions": "CHO-NPSR cells, cAMP TR-FRET, antagonist mode; activity change, negative = inhibition: at 38.3 µM (top of the series) unless noted", "values": [{"smiles": "C/C=C1\\C(OC2OC(CO)C(O)C(O)C2O)OC=C(C(=O)OC)C1CC(=O)OCC1C(C)C(OC(=O)CC2C(C(=O)OC)=COC(OC3OC(CO)C(O)C(O)C3O)/C2=C\\C)CC1C(CO)CO", "note": "(configuration not stated)", "Potency": "inconclusive: 25.1 µM [activator, single point]"}, {"smiles": "CCN(CC)c1ccc(C(=O)OCC(=O)N(C)Cc2ccccc2)cc1", "Potency": "inactive"}, {"smiles": "CC(=O)c1cccc(N(CC(=O)N2CCOCC2)S(C)(=O)=O)c1", "Potency": "inactive"}, {"smiles": "COc1ccc(OC)c(C2SCCN2S(=O)(=O)c2cccc(C(F)(F)F)c2)c1", "note": "(configuration not stated)", "Potency": "inconclusive: 10 µM [inhibitor, single point]"}, {"smiles": "CCCNC(=S)NCc1ccc(Cl)cc1", "Potency": "inactive"}, {"smiles": "CCn1c(=O)cc(OCC(=O)Nc2nc(C)cs2)c2ccccc21", "Potency": "inconclusive: 25.1 µM [inhibitor, single point]"}, {"smiles": "CCn1c(/C=C2/C(=O)N(C)c3ccccc32)nc2ccccc2c1=O", "Potency": "inactive"}, {"smiles": "Cc1ccc(CNC(=O)Nc2ccccc2)cc1", "Potency": "inactive"}, {"smiles": "O=C(NNC(=S)Nc1ccccc1Cl)c1ccncc1", "Potency": "inactive"}, {"smiles": "O=C1CC(=C(c2ccccc2)c2ccccc2)C(=O)N1CCN1CCN(c2cccc(Cl)c2)CC1", "Potency": "inactive"}, {"smiles": "Cc1ccccc1Cn1c(-c2cncs2)nc2ccccc21", "Potency": "inconclusive: 7.94 µM [inhibitor, partial curve]"}, {"smiles": "COc1ccc(CCNC(=O)CCNS(=O)(=O)c2cccc3nonc23)cc1OC", "Potency": "inactive"}, {"smiles": "CCCC(c1nnnn1C(C)(C)CC)N(Cc1ccco1)Cc1cc2ccc(OC)cc2[nH]c1=O", "note": "(configuration not stated)", "Potency": "inconclusive: 31.6 µM [inhibitor, single point]"}, {"smiles": "Cc1ccc2[nH]c(=O)c(C3C(C#N)=C(N)Oc4c3ccc3cccnc43)cc2c1", "note": "(configuration not stated)", "Potency": "inconclusive: 12.6 µM [inhibitor, single point]"}, {"smiles": "Cc1cc(C)cc(NC(=O)Nc2ccc(N3CCCCC3)cc2)c1", "Potency": "inconclusive: 12.6 µM [activator, single point]"}, {"smiles": "O=C(NCCc1ccccc1)N1c2ccccc2Sc2ccccc21", "Potency": "inconclusive: 12.6 µM [inhibitor, single point]"}, {"smiles": "CCCCCCN1Cc2ccccc2C1", "Potency": "inactive"}, {"smiles": "N#Cc1nc(COc2ccc(Cl)cc2)oc1N1CCCC1", "Potency": "inconclusive: 10 µM [inhibitor, single point]"}, {"smiles": "C(=N\\Nc1nc(Nc2ccccc2)nc(N2CCCCC2)n1)/c1ccco1", "Potency": "inconclusive: 5.01 µM [activator, partial curve]"}, {"smiles": "Cc1ccc(-n2c(-c3ccc(Br)cc3)c[n+]3c2CCc2ccc4cccnc4c2-3)cc1", "Potency": "active: 10 µM"}, {"smiles": "CCC(=O)c1ccc(OCC(=O)c2ccc3c(c2)NC(=O)CO3)cc1", "Potency": "inactive"}, {"smiles": "N#CC(C#N)=C(Nc1ccc(F)cc1)SCc1cccc(Br)c1", "Potency": "inactive"}, {"smiles": "COC(=O)c1sc(S(=O)(=O)NCc2ccccc2)c(C(=O)OC)c1C", "Potency": "inconclusive: 12.6 µM [inhibitor, partial curve]"}, {"smiles": "COC(=O)C1CCN(S(=O)(=O)Cc2ccccc2)CC1", "Potency": "inconclusive: 3.98 µM [inhibitor, single point]"}, {"smiles": "Cc1nc2nc(C)c(CCC(=O)N3CCOCC3)c(C)n2n1", "activity change, negative = inhibition": "inconclusive: -33.3% [inhibitor] [at 46.1 µM]"}, {"smiles": "COC(=O)c1ccccc1NC(=O)c1ccccc1N(C)S(=O)(=O)c1ccccc1", "Potency": "inconclusive: 10 µM [inhibitor, single point]"}, {"smiles": "COc1ccc(C2C(C(C)=O)=C(O)C(=O)N2C)c(OC)c1", "note": "(configuration not stated)", "Potency": "inactive"}, {"smiles": "CC(C)c1ccc(NC(=O)C(c2ccccc2)N2CCN(C(=O)c3ccco3)CC2)cc1", "note": "(configuration not stated)", "Potency": "inconclusive: 10 µM [inhibitor, single point]"}, {"smiles": "Cc1cccc(CSCCNC(=O)CN(c2cc(C)cc(C)c2)S(C)(=O)=O)c1", "Potency": "inconclusive: 25.1 µM [inhibitor, single point]"}, {"smiles": "c1ccc(CN2CCN(c3nc(-c4ccccc4)nc(-n4ccnc4)n3)CC2)cc1", "Potency": "inconclusive: 12.6 µM [inhibitor, single point]"}, {"smiles": "CCN(CC(O)Cn1c2ccccc2c2ccccc21)S(=O)(=O)c1ccc(C)cc1", "note": "(configuration not stated)", "Potency": "inconclusive: 12.6 µM [inhibitor, single point]"}, {"smiles": "Cc1cccc(-c2ncc(CN3CCCC(CO)(Cc4ccccc4C)C3)cn2)c1", "note": "(configuration not stated)", "Potency": "inconclusive: 12.6 µM [activator, single point]"}, {"smiles": "CCN1C(=O)c2cccc3c(S(=O)(=O)Nc4ncccc4C)ccc1c23", "Potency": "inactive"}, {"smiles": "O=S(Cc1cc(Oc2ccccc2)nc(-c2ccccc2)n1)c1ccccc1", "note": "(configuration not stated)", "Potency": "inconclusive: 12.6 µM [inhibitor, partial curve]"}, {"smiles": "CCCOc1ccccc1-n1sc2c(c1=S)-c1cc(OC)cc3c1N(C(=O)C3=O)C2(C)C", "Potency": "inconclusive: 20 µM [inhibitor, single point]"}, {"smiles": "CCN1CCN(CC(=O)c2c(C)n(C)c3ccc(OC)cc23)CC1", "Potency": "inconclusive: 25.1 µM [inhibitor, single point]"}, {"smiles": "CC(NCc1cc(Br)ccc1OCC(=O)NCc1ccccc1)c1ccccc1", "note": "(configuration not stated)", "Potency": "inconclusive: 10 µM [inhibitor, single point]"}, {"smiles": "O=C1c2cccc3c([N+](=O)[O-])ccc(c23)C(=O)N1CCc1ccccn1", "Potency": "inactive"}, {"smiles": "C/C(=N\\Nc1nc(Nc2ccccc2)nc(N2CCOCC2)n1)c1cccs1", "Potency": "inconclusive: 12.6 µM [activator, single point]"}, {"smiles": "Cc1c(CNC(=O)c2cnn3c2NC(c2ccc(Br)cc2)CC3C(F)(F)F)cnn1C", "note": "(configuration not stated)", "Potency": "inconclusive: 10 µM [inhibitor, single point]"}, {"smiles": "COc1ccccc1CNC(=O)c1ccc(NS(=O)(=O)c2c(C)noc2C)cc1", "Potency": "inactive"}, {"smiles": "O=C(CCSc1nc(-c2ccco2)cc(C(F)(F)F)n1)NCc1cccs1", "Potency": "inconclusive: 12.6 µM [inhibitor, single point]"}, {"smiles": "O=C(CCN1C(=O)COc2ccccc21)NCCCN1CCN(c2ccccc2F)CC1", "Potency": "inactive"}, {"smiles": "Cc1ccc2cc(C3CC(c4ccco4)=NN3S(C)(=O)=O)c(Cl)nc2c1", "note": "(configuration not stated)", "Potency": "inactive"}, {"smiles": "COC(=O)c1sccc1NC(=S)N1CC(C)CC(C)C1", "note": "(configuration not stated)", "Potency": "inconclusive: 12.6 µM [inhibitor, partial curve, poor fit]"}, {"smiles": "OCCN(CCO)c1ncnc2c1sc1nc(N3CCOCC3)c3c(c12)CCCC3", "Potency": "inconclusive: 10 µM [inhibitor, partial curve, poor fit]"}, {"smiles": "O=C(OCn1ncc(Br)c(Br)c1=O)c1c(F)cccc1F", "Potency": "active: 2.51 µM"}, {"smiles": "COc1cc2nc(CN(C)Cc3nc4ccccc4c(=O)[nH]3)[nH]c(=O)c2cc1OC", "Potency": "inactive"}, {"smiles": "CC(=O)Nc1ccc(Nc2cc(C(C)C)nc3c(-c4ccccc4)c(C)nn23)cc1", "Potency": "inconclusive: 10 µM [activator, partial curve]"}, {"smiles": "O=C(/C=C/c1ccc(Cl)cc1)NCc1cccs1", "Potency": "inactive"}, {"smiles": "COc1cccc(C2NC(=O)NC(C)=C2C(=O)Nc2ccccc2C)c1", "note": "(configuration not stated)", "Potency": "inactive"}, {"smiles": "CN(C)C(=O)C#Cc1ccccc1", "Potency": "inconclusive: 15.8 µM [activator, single point]"}, {"smiles": "CCCCOC(=O)Nc1cc(OC)c(Cl)cc1OC", "Potency": "inconclusive: 12.6 µM [inhibitor, partial curve, poor fit]"}, {"smiles": "CCO[C@@H]1OC(C(=O)Nc2ccccc2)=C[C@H](c2coc3ccccc3c2=O)[C@H]1CCCO", "Potency": "inconclusive: 10 µM [activator, single point]"}, {"smiles": "CCOC(=O)c1c(-c2cccs2)csc1NC(=O)CN1CCOCC1", "Potency": "inactive"}, {"smiles": "O=C1CC(Sc2nnc(-c3ccccc3O)o2)C(=O)N1c1ccccc1", "note": "(configuration not stated)", "Potency": "inconclusive: 25.1 µM [inhibitor, single point]"}, {"smiles": "COc1ccc(N(C)S(=O)(=O)c2cccc(C(=O)Nc3ccc(-n4cnnn4)cc3)c2)cc1", "Potency": "inconclusive: 12.6 µM [inhibitor, single point]"}, {"smiles": "Clc1ccccc1-c1nc2ccccc2c2nncn12", "Potency": "inactive"}, {"smiles": "CC(Sc1nc(-c2ccccc2)cc(C(F)(F)F)n1)C(=O)N1CCOCC1", "note": "(configuration not stated)", "Potency": "inconclusive: 0.0501 µM [inhibitor, full curve, poor fit]"}, {"smiles": "CN(C(=O)c1ccc2c(c1)C(=O)N(CCC1=CCCCC1)C2=O)C1CCCCC1", "Potency": "inconclusive: 15.8 µM [inhibitor, partial curve, poor fit]"}, {"smiles": "CCN1C(=O)C(CC(=O)Nc2ccc(OC)cc2)N(Cc2ccc(OC)c(OC)c2)C1=S", "note": "(configuration not stated)", "Potency": "inconclusive: 10 µM [activator, partial curve]"}, {"smiles": "Cc1ccc(SCc2nc3ccccc3n2CC(=O)Nc2c(C)cccc2C)cc1", "Potency": "inconclusive: 12.6 µM [inhibitor, single point]"}, {"smiles": "O=C1CSC(=NC2CCCCC2)N1", "Potency": "inactive"}, {"smiles": "COc1cc(/C=N/NC(=O)CSc2cc(C)c(Br)cc2C)ccc1O", "Potency": "inactive"}, {"smiles": "Cc1cc2cc3c(cc2nc1SCC(=O)N1c2ccccc2CC1C)OCO3", "note": "(configuration not stated)", "Potency": "inconclusive: 2 µM [inhibitor, full curve, poor fit]"}, {"smiles": "COc1ccc2c(=O)c3c(=O)n(Cc4ccco4)c(-c4ccco4)nc3oc2c1", "Potency": "inactive"}, {"smiles": "O=C(O)CC/C(=N/NC(=O)CNC(=O)Cc1ccc(Cl)cc1)c1ccccc1", "Potency": "inactive"}, {"smiles": "CCC1=C/C(=C/c2sc3ccccc3[n+]2CC)CC(C)(C)C1", "Potency": "inactive"}, {"smiles": "Cc1cc2ncn(C(=O)c3ccc4c(c3)OCO4)c2cc1C", "Potency": "inconclusive: 10 µM [inhibitor, partial curve, poor fit]"}, {"smiles": "COC(=O)C(C)N(C(=O)c1ccc(Cl)cc1)c1c(C)cccc1C", "note": "(configuration not stated)", "Potency": "inconclusive: 25.1 µM [inhibitor, single point]"}, {"smiles": "Cc1ccc(S(=O)(=O)N2CCOCC2)cc1C(=O)N1c2ccccc2Sc2ccccc21", "Potency": "inconclusive: 10 µM [inhibitor, single point]"}, {"smiles": "Cc1noc(/C=C/c2ccco2)c1S(=O)(=O)N1CCC(C(=O)N(C)Cc2ccccc2)CC1", "Potency": "inconclusive: 10 µM [inhibitor, single point]"}]}]}
